Results from patent publication US11178870B2 (priority 2017, dated 2021).

How the values were obtained:
Magnaporthe grisea = format: in vivo; conditions: class of control value, Table 7
Phytophthora infestans = format: in vivo; conditions: class of control value, Table 7
[1] = tested on: Colletotrichum orbiculare; conditions: 250 ppm spray, 2.5 ml/pot; investigated 6 to 10 days after inoculation

| SMILES | Test A control value (blast on rice) (Magnaporthe grisea) | Test F control value (late blight on tomato) (Phytophthora infestans) | Test H control value (anthracnose on cucumber) [1] |
| --- | --- | --- | --- |
| Cc1cnn(-c2cc(Br)c(=O)n(N)c2-c2ccc(F)cc2F)c1Cl [Compound 376] | L (L shows the control value of 50% or less) | L (L shows the control value of 50% or less) | H (H shows the control value more than 50%) |
| CCn1c(-c2ccccc2C#N)c(-n2cc(C)cn2)cc(Br)c1=O [Compound 471] | L (L shows the control value of 50% or less) | L (L shows the control value of 50% or less) | L (L shows the control value of 50% or less) |
| Cc1cc(F)ccc1-c1c(-n2ncc(C)c2Cl)cc(Cl)c(=O)n1C [Compound 512] | H (H shows the control value more than 50%) | L (L shows the control value of 50% or less) | H (H shows the control value more than 50%) |
| CCn1c(-c2ccc(OC)cc2Cl)c(-c2ccsc2Cl)cc(Cl)c1=O [Compound 502] | H (H shows the control value more than 50%) | L (L shows the control value of 50% or less) | H (H shows the control value more than 50%) |
| O=c1c(Br)cc(-c2cc(Br)sc2CBr)c(-c2c(F)cccc2F)n1CC(F)F [Compound 495] | H (H shows the control value more than 50%) | L (L shows the control value of 50% or less) | L (L shows the control value of 50% or less) |
